{
  "source": "PubChem BioAssay AID1457",
  "about": "(National Center for Advancing Translational Sciences (NCATS), 2008)",
  "note": "The campaign covered roughly 210,000 compounds. About 730 (0.35%) were called active. Inconclusive means that the source gave no clear call. Such entries were picked first, then a sample of the others. Calls follow the shape of the dose curve; as a rule, active = well fitted inhibition curve with a large enough effect; inconclusive = small, poorly fitted or top-dose-only effect; inactive = no such curve, though single readings can be large or run the other way. Where the call is inconclusive, the potency comes from a doubtful curve fit. Potency is read from the fitted curve at half-maximal effect.",
  "data": [
    {"experiment": "qHTS Assay for Identifying the Cell-Membrane Permeable IMPase Inhibitors: Potentiation with Lithium; also: nearly all actives have a fitted effect of over 50% in size;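 as to activity, negative = IMPase inhibition: plate controls were basal vehicle for no effect and high inhibitor control for full effect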", "conditions": "CHO-M1 cells, IP1 TR-FRET (IP-One), carbachol + lithium; series mostly up to 59.4 µM; activity, negative = IMPase inhibition: at the top concentration", "summary_of_the_method": "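IP1 accumulation measured by competitive TR-FRET in lysed CHO-M1 cells after 30 min compound exposure at 37C, with a small lithium addition to potentiate weak responses. Hill-equation AC50 from ratio and donor-channel data.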", "values": [
      {"smiles": "CN(C)c1ccc(/C=N/N=C/c2ccccc2O)cc1", "Potency": "inconclusive: 12.6 µM [inhibitor, partial curve]"},
      {"smiles": "Cc1cccc(C)c1NC(=O)c1cc2c(=O)c3ccccc3oc2nc1C(F)(F)F", "Potency": "inconclusive: 1.12 µM [inhibitor, partial curve, poor fit]"},
      {"smiles": "CCOC(=O)N1CCN(C(=O)CCCCCn2c(=S)[nH]c3cc4c(cc3c2=O)OCO4)CC1", "Potency": "inconclusive: 28.2 µM [inhibitor, single point]"},
      {"smiles": "O=C(Nc1ccc2c(c1)C(=O)N(c1ccccc1)C2=O)c1cccs1", "Potency": "inconclusive: 12.6 µM [inhibitor, single point]"},
      {"smiles": "CCc1ccc2ncc(C(=O)c3ccccc3)c(N3CCOCC3)c2c1", "Potency": "inconclusive: 28.2 µM [inhibitor, single point]"},
      {"smiles": "S=C(Nc1ccc2nccnc2c1)N1CCCC1", "activity, negative = IMPase inhibition": "inactive: 8.52%"},
      {"smiles": "COc1ccc(CCN(C)CCCN2CC(c3ccccc3)CC2=O)cc1OC", "note": "(centres undefined)", "activity, negative = IMPase inhibition": "inactive: 3.58%"},
      {"smiles": "CCC(C)NC(=O)CSc1nnc(-c2cc(-c3ccc(C)cc3)nc3ccccc23)n1N", "note": "(centres undefined)", "Potency": "inconclusive: 12.6 µM [inhibitor, single point]"},
      {"smiles": "Cc1cccc(C)c1NC(=O)CSc1cc(C(=O)c2nccn2C)c2ccccc2n1", "Potency": "inconclusive: 28.2 µM [inhibitor, single point]"},
      {"smiles": "COc1cccc(OC)c1C(=O)Nc1cc(Cl)ccc1N1CCOCC1", "activity, negative = IMPase inhibition": "inactive: -0.429%"},
      {"smiles": "Cc1ccc2nc(-c3ccc(N)cc3)sc2c1S(=O)(=O)O", "Potency": "inconclusive: 11.2 µM [inhibitor, single point]"},
      {"smiles": "Cc1cc(NC(=O)CSc2nc3c(sc4ccccc43)c(=O)n2CCCN2CCOCC2)n[nH]1", "Potency": "inconclusive: 11.2 µM [inhibitor, partial curve]"},
      {"smiles": "COc1ccccc1Nc1nc2cc(C)ccc2cc1C#N", "Potency": "inconclusive: 22.4 µM [inhibitor, single point]"},
      {"smiles": "CCOC(=O)c1[nH]c2ccccc2c1N=CN(CC)CC", "activity, negative = IMPase inhibition": "inactive: 31.8% [at 38.3 µM]"},
      {"smiles": "CC1CCCN(C(=O)Cn2c(-c3nonc3N)nc3ccccc32)C1", "note": "(centres undefined)", "activity, negative = IMPase inhibition": "inactive: 9.95% [at 38.3 µM]"},
      {"smiles": "Cc1ccc(S(=O)(=O)N2CCN(c3cnn(-c4ccccc4)c(=O)c3Cl)CC2)cc1", "Potency": "inconclusive: 28.2 µM [inhibitor, single point]"},
      {"smiles": "Cc1c(-c2ccc(Cl)cc2)oc(=O)c2c(N)n(-c3ccccc3)nc12", "Potency": "inconclusive: 28.2 µM [inhibitor, single point]"},
      {"smiles": "CCC(C)NC(=O)C1CCC(=O)N(c2ccc3c(c2)OCO3)C1c1ccc(OC)cc1", "note": "(centres undefined)", "activity, negative = IMPase inhibition": "inactive: 23.6% [at 38.3 µM]"},
      {"smiles": "COc1ccc(S(=O)(=O)Nc2ccc(F)c(Cl)c2)cc1OC", "Potency": "inconclusive: 28.2 µM [inhibitor, single point]"},
      {"smiles": "Cn1c(SCC(=O)NC2CCCCC2)nnc1-c1cc2cc(Cl)ccc2o1", "Potency": "inconclusive: 28.2 µM [inhibitor, single point]"},
      {"smiles": "Cc1cc2cc(CNC(=O)c3ccc(S(=O)(=O)N4CCCCC4)cc3)ccc2n1C", "Potency": "inconclusive: 0.501 µM [inhibitor, full curve, poor fit]"},
      {"smiles": "CCc1nnc(NC(=O)CSc2nnc(-c3ccccc3NC(=O)c3ccccc3)o2)s1", "Potency": "inconclusive: 28.2 µM [inhibitor, single point]"},
      {"smiles": "CC1(C)Cc2c(C#N)c(SCC(=O)c3ccccc3)nc(N3CCOCC3)c2CO1", "Potency": "inconclusive: 28.2 µM [inhibitor, single point]"},
      {"smiles": "NC(=O)c1sc2nc(-c3ccccc3)c3c(c2c1N)CCCC3", "Potency": "inconclusive: 22.4 µM [inhibitor, single point]"},
      {"smiles": "CCc1nc(SCC(=O)c2ccc(Cl)s2)c2oc3ccccc3c2n1", "Potency": "inconclusive: 0.355 µM [inhibitor, full curve, poor fit]"},
      {"smiles": "Cc1ccc2c(c1)sc(=NC(=O)c1cccs1)n2C", "Potency": "inconclusive: 28.2 µM [inhibitor, single point]"},
      {"smiles": "CN(C)CCCO[C@H]1C([C@H](O)CO)O[C@@H]2OC(C)(C)O[C@@H]21", "note": "(some centres undefined)", "activity, negative = IMPase inhibition": "inactive: -1.39%"},
      {"smiles": "CCOC(=O)c1cnc2ccc(Br)cc2c1NCC(C)O", "note": "(centres undefined)", "Potency": "inconclusive: 28.2 µM [inhibitor, single point]"},
      {"smiles": "Cc1ccc(S(=O)(=O)NCCCC(=O)O)cc1", "activity, negative = IMPase inhibition": "inactive: 2.63%"},
      {"smiles": "CC(C)N1CCN(Cc2cccn2-c2nccs2)CC1CCO", "note": "(centres undefined)", "activity, negative = IMPase inhibition": "inactive: 13%"},
      {"smiles": "O=C(c1nc2ccc([N+](=O)[O-])cc2[nH]c1=O)[C@@H](O)c1ccc2c(c1)OCO2", "activity, negative = IMPase inhibition": "inactive: 3.4%"},
      {"smiles": "COc1ccc(C(=O)CN2CCN(S(=O)(=O)c3cccc([N+](=O)[O-])c3)CC2)cc1", "activity, negative = IMPase inhibition": "inactive: 8.33%"},
      {"smiles": "Cc1cc(Cl)c(S(=O)(=O)N2CCSCC2)cc1OCC(=O)NC1CCCCC1", "activity, negative = IMPase inhibition": "inactive: 13.5% [at 38.3 µM]"},
      {"smiles": "COc1cc2cc(Br)cc(Br)c2nc1C", "Potency": "active: 12.6 µM"},
      {"smiles": "Cc1[nH]n(C(N)=S)c(=O)c1N=Nc1ccc(S(=O)(=O)N2CCCCCC2)cc1", "activity, negative = IMPase inhibition": "inactive: 10.2% [at 38.3 µM]"},
      {"smiles": "CCOc1ccccc1C1C(C#N)=C(N)SC(N)=C1C#N", "Potency": "inconclusive: 14.1 µM [inhibitor, single point]"},
      {"smiles": "CC(=S)c1c(C)cc2cc(C)ccn12", "activity, negative = IMPase inhibition": "inactive: -6.72%"},
      {"smiles": "Cc1cc(S(=O)(=O)N2CCCOC2CNC(=O)C(=O)NCc2ccco2)ccc1F", "note": "(centres undefined)", "Potency": "inconclusive: 5.01 µM [inhibitor, single point]"},
      {"smiles": "CCOC(=O)c1ccc[n+](C(C)C(=O)c2ccc(-c3ccccc3)cc2)c1", "note": "(centres undefined)", "activity, negative = IMPase inhibition": "inactive: 14.2%"},
      {"smiles": "CC1(C)CC2C1CCC1(C)OC1CCC2(C)O", "note": "(centres undefined)", "activity, negative = IMPase inhibition": "inactive: 6.62%"},
      {"smiles": "CN1CCN(c2cc(C(F)(F)F)nc(-c3ccccn3)n2)CC1", "activity, negative = IMPase inhibition": "inactive: 14.8%"},
      {"smiles": "CCc1ccc(NC(=O)/C(C#N)=C/c2cc3ccc(C)cc3nc2N2CCOCC2)cc1", "Potency": "inconclusive: 10 µM [inhibitor, partial curve]"},
      {"smiles": "CCOC(=O)N1CCN(C(=O)CN(c2cc(Cl)ccc2OC)S(=O)(=O)c2ccccc2)CC1", "activity, negative = IMPase inhibition": "inactive: 11.2% [at 38.3 µM]"},
      {"smiles": "CCn1cc(NC(=O)CCl)c(C)n1", "activity, negative = IMPase inhibition": "inactive: 1.66%"},
      {"smiles": "COc1cccc(S(=O)(=O)NCc2ccc(C(=O)Nc3cccc(Cl)c3)cc2)c1", "activity, negative = IMPase inhibition": "inactive: 34.5% [at 38.3 µM]"},
      {"smiles": "COc1ccc(Oc2ccc(NC(=O)c3ccccc3C)cc2)cc1", "activity, negative = IMPase inhibition": "inactive: 17.7%"},
      {"smiles": "COc1cc2c(cc1OC)C1=NC(=O)CN1C(SCc1ccc(C)cc1)=N2", "Potency": "inconclusive: 10 µM [inhibitor, single point]"},
      {"smiles": "C/C(CC(=O)NC(C)(C)C)=N\\NC(N)=S", "activity, negative = IMPase inhibition": "inactive: 2.11%"},
      {"smiles": "CCc1ccc2nc(-c3cccc(C)c3)nc(SCC(=O)NCC3CCCO3)c2c1", "note": "(centres undefined)", "Potency": "inconclusive: 11.2 µM [inhibitor, partial curve]"},
      {"smiles": "CC(=O)Nc1nc2nc(-c3ccccc3)cc(-c3ccccc3)n2n1", "Potency": "inconclusive: 28.2 µM [inhibitor, single point]"},
      {"smiles": "C[C@@H](C(=O)Nc1ccc2ccccc2c1)[C@H]1C[C@]1(C)[C@H](NS(=O)(=O)c1ccc2ccccc2c1)c1ccccc1", "activity, negative = IMPase inhibition": "inactive: -6.73%"},
      {"smiles": "COc1ccc(-n2c(=O)cnc3cnc(N4CCN(C)CC4)nc32)cc1", "activity, negative = IMPase inhibition": "inactive: -9.13%"},
      {"smiles": "Cc1ccccc1N1C(S)=C(C#N)C(=O)NC12CCCCC2", "activity, negative = IMPase inhibition": "inactive: -1.24%"},
      {"smiles": "CCn1c(SCC(=O)Nc2nccs2)nnc1-c1ccc(S(=O)(=O)N2CCCCCC2)cc1", "Potency": "inconclusive: 12.6 µM [inhibitor, single point]"},
      {"smiles": "COc1cc(C2CC(=O)OC3=C2C(=O)CC(C)(C)C3)cc(OC)c1OC", "note": "(centres undefined)", "Potency": "inconclusive: 5.01 µM [inhibitor, single point]"},
      {"smiles": "COC(=O)Sc1nnc(-c2ccc(Br)cc2)o1", "Potency": "active: 10 µM"},
      {"smiles": "COc1ccc(C2=CC(c3ccc(Cl)cc3)n3cnnc3N2)cc1OC", "note": "(centres undefined)", "Potency": "inconclusive: 12.6 µM [inhibitor, partial curve]"},
      {"smiles": "CN1CCN(c2ncc3nc(-c4cccs4)c(=O)n(-c4ccccc4)c3n2)CC1", "Potency": "inconclusive: 14.1 µM [inhibitor, single point]"},
      {"smiles": "CCCOc1ccc2ccccc2c1/C=N/n1cnnc1", "activity, negative = IMPase inhibition": "inactive: 17% [at 38.3 µM]"},
      {"smiles": "CCOC(=O)C1CCN(c2c(-c3ccccc3)c3cc(Cl)ccc3[nH]c2=O)CC1", "Potency": "inconclusive: 28.2 µM [inhibitor, single point]"},
      {"smiles": "Cc1ccc(Sc2cc(C(F)(F)F)nc(N(C)C)n2)cc1", "Potency": "inconclusive: 22.4 µM [inhibitor, single point]"},
      {"smiles": "CN(C)c1ccc(/C(=N\\O)c2ccccc2)cc1", "activity, negative = IMPase inhibition": "inactive: 22.7% [at 38.3 µM]"},
      {"smiles": "c1ccc2c(c1)nc(N1CCOCC1)c1ccccc12", "Potency": "inconclusive: 5.01 µM [inhibitor, single point]"},
      {"smiles": "CCC(=O)NNC(=O)CCC(=O)Nc1cccc(Cl)c1C", "activity, negative = IMPase inhibition": "inactive: -0.934%"},
      {"smiles": "CCOC(=O)Cc1nnc(NC(=O)CSc2nnc3c4ccccc4n(C(C)C)c3n2)s1", "Potency": "inconclusive: 1.41 µM [inhibitor, full curve]"},
      {"smiles": "O=C(CCCn1c(=O)[nH]c2ccc(Br)cc2c1=O)NCc1ccc(Cl)cc1", "Potency": "inconclusive: 28.2 µM [inhibitor, single point]"},
      {"smiles": "CCOC(=O)c1nnn(CC(=O)N2N=C(c3ccccc3)CC2c2ccccc2)c1C(=O)OCC", "note": "(centres undefined)", "Potency": "inconclusive: 28.2 µM [inhibitor, single point]"},
      {"smiles": "O=C(NNC(=S)NCc1ccc(Cl)cc1)c1ccc(Br)o1", "activity, negative = IMPase inhibition": "inactive: 1.51%"},
      {"smiles": "Clc1ccc(-c2nn3c(-c4ccccc4)nnc3s2)cc1", "Potency": "inconclusive: 28.2 µM [inhibitor, single point]"},
      {"smiles": "CC(C)(C)c1ccc(CN2N=C(/C=C/c3ccccc3)CCC2=O)cc1", "Potency": "inconclusive: 2 µM [inhibitor, partial curve]"},
      {"smiles": "CC(=O)C1=C(O)C(=O)N(Cc2ccco2)C1c1ccccc1F", "note": "(centres undefined)", "Potency": "inconclusive: 3.55 µM [inhibitor, partial curve]"},
      {"smiles": "CCCCn1c(SCC(=O)Nc2cc(C)on2)nc2ccsc2c1=O", "Potency": "inconclusive: 14.1 µM [inhibitor, single point]"},
      {"smiles": "CCOC(=O)c1[nH]c2cc3c(cc2c1NC(=O)CN1CCC2(CC1)OCCO2)OCO3", "Potency": "inconclusive: 8.91 µM [inhibitor, partial curve]"},
      {"smiles": "Cc1cccc(NC(=O)c2cc(NC(=O)c3ccco3)ccc2N2CCCCC2)c1", "Potency": "inconclusive: 12.6 µM [inhibitor, single point]"}
    ]}
  ]
}
